In the supplement of paper PMC10126150:
Sequences with one replicate were seen in a single cluster, so their values are uncertain.

These sequences were tested on ATP (assay: switch fluorescence ratio, 500 uM ATP over buffer (Cy3 cluster intensity, sum of 5 cycles each) (fold (ratio)); higher = stronger signal-on switching upon ATP binding; sequences stand for … in TCGTCGGCAGCGTCAGATGTGTATAAGAGACAGTTTTTTTTTTTTTTTTTTTTTTTTT…TC). Details: aptamer strand: ATP DNA aptamer (quencher-CACCTGGGGGAGTATTGCGGAGGAAGG + anchor), 100 nM annealed; ATP concentration: 500 uM; one replicate.
Procedure, shortened: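 For every switch-domain sequence, the fluorescence ratio is the mean of per-cluster values, each being summed target-cycle Cy3 intensity over summed buffer-cycle Cy3 intensity. Clusters outside 100-1000 RFU were excluded. On a modified Illumina MiSeq flow-cell, the Cy3-labelled switching-strand clusters were annealed to 100 nM quencher-labelled ATP aptamer, imaged in selection buffer and then after 15 min with 500 uM ATP at 22 °C. Five such cycles were run, with NaOH stripping and re-annealing between them.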
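Further: ATP exposure 15 min at 22 °C before imaging.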

Row | Sequence | switch fluorescence ratio
1 | TAGTTCCGTA | 1.03
2 | TAGTTCGCA | 1.08
3 | TAGTTCGTTA | 1.01
4 | TAGTTCTAGG | 0.984
5 | TAGTTCTTCA | 0.959
6 | TAGTTGACAG | 0.968
7 | TAGTTTAAAG | 0.994
8 | TAGTTTCACT | 1.03
9 | TAGTTTCCAC | 1.19
10 | TAGTTTGACA | 0.999
11 | TAGTTTTGTT | 1.02
12 | TATAAAAGCA | 0.977
13 | TATAAATAA | 0.964
14 | TATAACTGAT | 1.05
15 | TATAAGCTCG | 0.948
16 | TATAAGTGTA | 0.986
17 | TATAATATTG | 0.963
18 | TATAATCAGT | 1.03
19 | TATAATGAT | 0.995
20 | TATACCACTT | 1.03
21 | TATACGGCA | 1.14
22 | TATACGGGTT | 0.969
23 | TATACGTGAA | 1.14
24 | TATACTGTCG | 1.01
25 | TATAGAACGT | 0.986
26 | TATAGAATGG | 0.972

Row | Sequence | switch fluorescence ratio
27 | TATAGACGTT | 0.957
28 | TATAGAGGTG | 1.09
29 | TATAGAGTTA | 1
30 | TATAGCTTCC | 2.84
31 | TATAGGTCAT | 0.962
32 | TATAGTACTC | 1.05
33 | TATATACCCA | 1
34 | TATATATTCG | 1.01
35 | TATATCAA | 1.03
36 | TATATCATTA | 0.974
37 | TATATCCAGG | 1.26
38 | TATATCTTGA | 1
39 | TATATCTTGG | 1.04
40 | TATATGCCCA | 0.977
41 | TATATGCTTA | 0.974
42 | TATATGTTGT | 0.99
43 | TATATTTTCT | 1.02
44 | TATCAGGCT | 1.03
45 | TATCAGTTTC | 1.03
46 | TATCATACGG | 1.02
47 | TATCATGAAT | 1.03
48 | TATCATGCGT | 1
49 | TATCCAAGGA | 0.971
50 | TATCCAGATA | 0.974
51 | TATCCAGATT | 0.976
52 | TATCCCTAGG | 1.29

Row | Sequence | switch fluorescence ratio
53 | TATCCGGGAA | 1.01
54 | TATCCTAGAA | 1
55 | TATCCTTTTC | 1
56 | TATCGAACGT | 0.976
57 | TATCGAAGTA | 1
58 | TATCGAATGC | 0.906
59 | TATCGACTTT | 0.98
60 | TATCGCGCGA | 0.979
61 | TATCGCGTTG | 1.02
62 | TATCGGGTT | 0.97
63 | TATCGGGTTG | 1
64 | TATCGGTGGC | 0.978
65 | TATCTCACAC | 1.04
66 | TATCTGCTAT | 1.1
67 | TATCTGCTGC | 1.09
68 | TATCTGGACC | 1
69 | TATCTTACTA | 0.999
70 | TATCTTCCAC | 1.09
71 | TATCTTCGGC | 1
72 | TATCTTGTCT | 0.999
73 | TATGAAAGCG | 0.995
74 | TATGAATGA | 1.08
75 | TATGAATTGA | 1.02
76 | TATGACGACC | 1.16
77 | TATGAGCCAC | 1.06
78 | TATGAGGCGA | 1.09

Row | Sequence | switch fluorescence ratio
79 | TATGAGTGAT | 1.08
80 | TATGATCCGA | 1
81 | TATGATCTAT | 1.02
82 | TATGATTCCT | 1.07
83 | TATGCCAGT | 1.01
84 | TATGCCAGTT | 0.938
85 | TATGCCCATA | 1.02
86 | TATGCCGGGT | 0.965
87 | TATGCTCACC | 1.21
88 | TATGCTTGAA | 0.97
89 | TATGCTTGTC | 1.01
90 | TATGGAATAG | 1.04
91 | TATGGAGTAT | 0.975
92 | TATGGCTAGA | 0.98
93 | TATGGGCGAG | 0.982
94 | TATGGGCGGT | 0.997
95 | TATGGTATGA | 0.924
96 | TATGGTGTAC | 0.976
97 | TATGGTTGGA | 0.983
98 | TATGTAGGAT | 0.974
99 | TATGTAGGGT | 0.983
100 | TATGTATATT | 0.991
101 | TATGTATGGG | 1.02
102 | TATGTCCGCG | 1.1
103 | TATGTCTCAC | 1.03
104 | TATGTGAGAA | 1

Row | Sequence | switch fluorescence ratio
105 | TATGTGTCTT | 0.987
106 | TATGTTACGT | 1.05
107 | TATGTTACTT | 1.03
108 | TATGTTCTAT | 1.05
109 | TATGTTGCAG | 0.98
110 | TATTAAAAGC | 1
111 | TATTAAGCG | 0.997
112 | TATTAGAGTC | 0.975
113 | TATTAGTAAA | 1.02
114 | TATTATACGT | 1
115 | TATTATATAT | 1
116 | TATTCGCTT | 0.934
117 | TATTCGTTTG | 1.04
118 | TATTCTACGT | 1.05
119 | TATTCTGTGT | 0.988
120 | TATTGAATGT | 0.966
121 | TATTGAGTCG | 1.09
122 | TATTGGAGCA | 0.975
123 | TATTGGTGC | 1.06
124 | TATTTACCCG | 1.01
125 | TATTTACGTC | 0.99
126 | TATTTACTGA | 1.2
127 | TATTTACTTG | 1.01
128 | TATTTAGATA | 1.01
129 | TATTTCGGTA | 1.03
130 | TATTTTGACC | 0.992

Row | Sequence | switch fluorescence ratio
131 | TCAAAAATG | 0.998
132 | TCAAAAGGGT | 0.997
133 | TCAAAATCAC | 1.11
134 | TCAAACCCAA | 1.03
135 | TCAAAGCCGG | 1
136 | TCAAAGGCCC | 1
137 | TCAAAGGTCT | 1.02
138 | TCAACATTGT | 0.997
139 | TCAACCGGAT | 1.03
140 | TCAACGGTTG | 0.977
141 | TCAACGTAAA | 1.13
142 | TCAACGTCAT | 1.1
143 | TCAAGAGTAA | 1.03
144 | TCAAGAGTGG | 1
145 | TCAAGATGGT | 0.997
146 | TCAAGCGCTG | 1.03
147 | TCAAGCTAAT | 1.06
148 | TCAAGGAAAG | 0.992
149 | TCAAGGACTA | 1.03
150 | TCAAGGCATG | 0.995
151 | TCAAGGTCTT | 0.95
152 | TCAAGTCGTT | 0.984
153 | TCAAGTGCTG | 0.892
